From the supplement of paper PMC10126150
Values marked as one replicate rest on one cluster of the flow cell; about a third of the high ones do not repeat.

Test system: ATP
Assay: switch fluorescence ratio, 500 uM ATP over buffer (Cy3 cluster intensity, sum of 5 cycles each) (fold (ratio)); higher = stronger signal-on switching upon ATP binding; sequences stand for … in TCGTCGGCAGCGTCAGATGTGTATAAGAGACAGTTTTTTTTTTTTTTTTTTTTTTTTT…TC
Conditions: aptamer strand: ATP DNA aptamer (quencher-CACCTGGGGGAGTATTGCGGAGGAAGG + anchor), 100 nM annealed; ATP concentration: 500 uM; one replicate
Procedure, shortened: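 Clusters carrying Cy3-labelled switching strands on a modified Illumina MiSeq flow-cell were annealed to 100 nM quencher-labelled ATP aptamer and imaged in selection buffer. They were imaged again after 15 min with 500 uM ATP at 22 °C, over five buffer/ATP cycles with NaOH stripping and re-annealing in between. For each cluster, the fluorescence ratio is the summed Cy3 intensity of the target cycles divided by that of the buffer cycles, averaged per switch-domain sequence. Clusters outside 100-1000 RFU were left out.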
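Further: ATP exposure 15 min at 22 °C before imaging.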

Sequence	switch fluorescence ratio
GATCCCAGT	1.05
TCATACGGCC	1.06
TAATCTGCTA	1.1
CCATATTGA	1
GCATATGTGT	0.974
CGAGAAGTT	1.03
TTCTCTTAGG	0.996
GTTCATAGGG	0.956
ACGTGCCTGT	0.986
AGAGGAGGTT	0.967
GTTCCAGGGA	1.07
AACGACATAC	2.92
TGATGGGATA	0.979
TCGCTTAGGC	1.04
AGAGGTCTAG	1
TTCAGGTTAC	1
ATTCAATTA	0.963
ATGTTTGTAT	1.01
ATGAAAGCGC	1.02
TGGGGGGTC	0.938
TGGGCCAGGG	1.04
GTTTTTGTCT	0.979
ACACGCGGCA	1.06

Sequence	switch fluorescence ratio
ACGGCGCAGT	1.25
CGGGTAAAAT	0.989
AATAGAGGCA	1.06
AAGTCTTGCC	1.01
GGACGTATGA	1.04
AATCGCTCTA	0.973
CCAGGCGTAG	1
ATAGGCAGGT	1.02
CGGCGGTGGG	0.993
CAGTAACCGG	0.991
TGTTTGGTTC	1.26
GCAGGGGTAC	1.12
TGGGGCCACT	0.982
AATTTAGATG	1.07
TACTGGGA	1.53
GAGCAAGCT	1.35
TTTATGGACG	0.991
AGACTTTGGT	1.01
CAACTTGATC	0.986
ATAACGCCAA	1.3
GGTTAAGCGA	1.03
ACCTATTAAA	0.965
AGTGCTTAAT	0.991

Sequence	switch fluorescence ratio
CCCAAATGAG	0.992
TGCTGGTGGG	0.944
TTCGTCTTCT	0.962
TCGCAGAGTC	1.29
GTAATATCTA	1.05
AGCTGATGAT	0.993
CTCATTAAAC	1
CCGCGGAGAA	1
GCTCCTAAGG	1.11
TCACCGAGTA	1.02
AGTGATCAT	1
TTGCTTTTA	1.01
TGGACTCACC	1.35
GACTAGGGGC	0.99
AGTCAGACTG	0.948
TCCTGGGTGA	1
CAGAGTGATT	1.03
TAGGTTGACG	0.938
TTGCTGGGTT	0.938
ACGGGGATAG	1.07
TATACCTATG	1
TGAAAGCATC	1.08
CGAAAACACA	0.951

Sequence	switch fluorescence ratio
TGAGTCTAGT	1.04
CGAGACCAGT	1.13
GGAGACAGCA	1.01
AGATCACCAT	1.08
ATGCTATTCG	0.977
ACAAATTGTA	0.967
CCTATATA	0.987
ACTCGACTT	1.12
AACGTGATTG	1.03
TCTTTTTCGA	1
AAACCATAGG	0.93
TAACGTTCCT	2.61
AAGTGCTGTA	1.04
TATAGTACAG	1.02
GCTGCGAAGC	1.01
GATTAGGTT	1.05
AAACGGCAGA	1.01
TCGTTAACCA	1.03
ATATTAATT	0.963
AGAATTCTTA	0.983
CGCGTTCCCG	1.05
CTAGATACTC	3.1
CTGATCCTAG	1.02

Sequence	switch fluorescence ratio
AATGTTGTAT	0.953
CATCTGTTCG	0.984
AAATTATCAA	0.955
CCAAGATATT	1
CTTAAAGGAG	1.01
GATTTTATGA	1.02
CCAGACTGAG	0.965
ATCAACAGTT	0.935
TGATATAATA	1.01
CGCCGTACTG	1.02
TTCACCATTT	0.995
TTTGTCGTTC	0.974
ATACGTGCTA	1.01
CGCGCCTATA	0.99
CGGGGCCGCC	1.02
GGAGTCGCTA	0.981
GAACAGAGTT	0.977
GGAGCACAAC	2.63
GCCAGTATAC	1.26
GGCGTCCCAG	1.03
GCAGTATTAC	1.82
GTCCCTATGT	1.03
GAGACGGGGT	1.03

Sequence	switch fluorescence ratio
TGGCAAGTAT	0.984
GACCCTAAAT	1.02
GCGAGAATCG	1.01
AGCTTCTCAG	1.04
TGTTGTCCGA	0.977
GACACTTGGG	1.01
GCATGTGCTC	1.12
TAAAAAAATG	1.03
GCATGGTCAC	1.01
ATTCTGAGGT	1.02
ATTGCGCGCC	1
TGTAAGTACT	1.01
TAAAACGTAG	1
GGTTGCTTTC	1.01
GAATGTCCGC	1.12
GAGGAGCATT	1.05
TGGACATGCA	1.02
AGTACGAATT	1
CGCAAGGGTA	3.84
TCCAAGTTGT	0.997
ATGGGACCAA	1.05
TTGCTACTA	1.06
GGTGAAAGAA	0.935

Sequence	switch fluorescence ratio
CTGTTCGCTC	1.29
CTTGCAGCTG	1
CCACGCGTGG	0.955
TATATCCGTC	0.996
TGGGTAATTC	1.03
AAGCAATTAC	2.11
CTACTTCTA	1.04
CCTACTCACG	1.6
ATTACACATA	1.32
CTTTTTGATA	0.987
GTGTGCATGG	1.03
ACTTAGGTGG	1
ATAAAACC	1.03
CCCTAAGT	1.02
TTTAGCGCCC	0.955
AAAGGGGCA	1.04
CAGTGCCATA	0.975
AGAACGCAAG	1.11
TATGTGGAA	0.986
AACTGAGTCG	1.09
